{
  "source": "PubChem BioAssay (Tox21)",
  "key": {"[1]": {"experiment": "qHTS assay to identify small molecule agonists of H2AX (AID 1224845; active = well fitted activation curve with a large enough effect in the signal ratio in the repeat runs, not every such curve was filed as active; inconclusive = weak or mixed curves; the % refers to the signal ratio; also: potency is read from the fitted curve at half-maximal effect; as to activation (H2AX phosphorylation): % is scaled to controls: 0 for no effect and ±100 for the full control effect)", "conditions": "CHO-K1 phospho-H2AX Ser139 HTRF, 3 h; activation (H2AX phosphorylation): at 154 µM (top of the series) unless noted", "in_short": "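Phospho-H2AX Ser139 measured by HTRF (ex 320 nm; em 665 and 620 nm) after 24 hr antibody incubation. Compounds, 15 concentrations, 0.76% DMSO, were applied to CHO-K1 cells for 3hr at 37C before lysis.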"}, "[2]": {"experiment": "qHTS assay to identify small molecule agonists of the hypoxia (HIF-1) signaling pathway (AID 1224846; active = well fitted activation curve with a large enough effect in the signal ratio in the repeat runs, not every such curve was filed as active; inconclusive = weak or mixed curves; the % refers to the signal ratio; also: potency is read from the fitted curve at half-maximal effect; as to activation: % is scaled to controls: 0 for no effect and ±100 for the full control effect)", "conditions": "HRE-bla ME-180 cells, beta-lactamase ratio, 17 h; activation: at 76.8 µM (top of the series) unless noted", "in_short": "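HRE-bla ME-180 beta-lactamase reporter cells in medium with 0.5% dialyzed FBS, pre-incubated 5 h then exposed to compounds 17 h at 37C, 5% CO2; reporter induction read with CCF4-AM FRET substrate.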"}, "[3]": {"experiment": "A CellTox Green Cytotoxicity Assay to monitor cytotoxicity in HEK293 cells - 32 hour (AID 1224881); also: % is scaled to controls: 0 for no effect and ±100 for the full control effect; nearly all actives have a fitted effect of over 40% in size", "in_short": "(§1)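 HEK293 cells, 600/well, were preincubated 5 hours and then exposed to compounds at 37 C for up to 40 hours. A cell-impermeant cyanine dye staining dead-cell DNA was read by fluorescence at 0, 8, 16, 24, 32 and 40 h time points.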"}, "[4]": {"experiment": "qHTS RealTime-Glo MT Cell Viability Assay in HEK293 cells - 32 hour (AID 1224868)", "in_short": "(§2)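 Reads taken at 0, 8, 16, 24, 32 and 40 h from the same wells. HEK293 cells (600/well) carried RealTime-Glo reagents from seeding, with compound added after a 5 h settle at 37 C.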"}, "[5]": {"experiment": "qHTS RealTime-Glo MT Cell Viability Assay in HEK293 cells - 16 hour (AID 1224872)", "in_short": "as §2"}, "[6]": {"experiment": "qHTS RealTime-Glo MT Cell Viability Assay in HEK293 cells - 0 hour (AID 1224880)", "in_short": "(§3)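 600 cells/well were plated with the nonlytic NanoLuc/prosubstrate reagent, pre-incubated 5 h, then given 23 nL of compound in DMSO. Incubation at 37 C for 40 h, with luminescence from viable-cell-reduced substrate read repeatedly from 0 h.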"}, "[7]": {"experiment": "A CellTox Green Cytotoxicity Assay to monitor cytotoxicity in HEK293 cells - 40 hour (AID 1224871)", "in_short": "as §1"}, "[8]": {"experiment": "A CellTox Green Cytotoxicity Assay to monitor cytotoxicity in HepG2 cells - 40 hour (AID 1224879)", "in_short": "(§4)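 HepG2 cells, 600/well, preincubated 5 h with CellTox Green dye, then exposed to Tox21 compounds in DMSO at 37 C for up to 40 h. Dead-cell DNA fluorescence read at the indicated time point.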"}, "[9]": {"experiment": "qHTS assay to identify small molecule agonists of H2AX - cell viability counter screen (AID 1224847; calls by dose curve)", "in_short": "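Wild-type CHO-K1 cells (10% FBS medium) were plated overnight at 37C, exposed to compounds at 15 concentrations for 3 hr at 37C (0.76% DMSO final), and viability was read as CellTiter-Glo luminescence after 30 min at room temperature.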"}, "[10]": {"experiment": "qHTS assay to identify small molecule antagonists of the estrogen related receptor (ERR) signaling pathway from Tox21 library (AID 1224848)", "in_short": "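Reading was by luminescence 30 min after ONE-Glo addition. Before that, ERR cells at 2,000 per well had rested 6 h at 37 C/5% CO2 and then received pin-tooled compounds in DMSO for 18 h at 37 C.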"}, "[11]": {"experiment": "qHTS RealTime-Glo MT Cell Viability Assay in HepG2 cells - 24 hour (AID 1224867)", "in_short": "(§5)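 HepG2 suspension premixed with RealTime-Glo reagents is plated at 600 cells per well and left 5 h at 37 C/5% CO2. Compounds in DMSO then go in, and bioluminescence reflecting viable cell number is recorded over 40 h.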"}, "[12]": {"experiment": "qHTS RealTime-Glo MT Cell Viability Assay in HepG2 cells - 40 hour (AID 1224870)", "in_short": "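Real-time viability: cells seeded at 600 per well together with NanoLuc and cell-permeant prosubstrate, compounds added after 5 h incubation. Luminescence tracked at 0, 8, 16, 24, 32 and 40 h of exposure.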"}, "[13]": {"experiment": "qHTS RealTime-Glo MT Cell Viability Assay in HEK293 cells - 40 hour (AID 1224874)", "conditions": "RealTime-Glo luminescence; max response: hits give low values", "in_short": "as §3"}, "[14]": {"experiment": "A CellTox Green Cytotoxicity Assay to monitor cytotoxicity in HEK293 cells - 24 hour (AID 1224875)", "in_short": "as §1"}, "[15]": {"experiment": "qHTS RealTime-Glo MT Cell Viability Assay in HepG2 cells - 32 hour (AID 1224877)", "in_short": "as §5"}, "[16]": {"experiment": "A CellTox Green Cytotoxicity Assay to monitor cytotoxicity in HepG2 cells - 24 hour (AID 1224878)", "in_short": "as §4"}},
  "note": "Values joined by “and” are separate entries in the source; they are usually repeats but may differ in a detail not shown here. Equal values may be shown once. The inconclusive results got no clear call from the source; some entries with a clear call stand among them for comparison. For some of these results: Where the call is inconclusive, the potency comes from a doubtful curve fit. Active and inactive are the calls of the source. Unless noted, calls follow the shape of the dose curve; as a rule, active = well fitted curve in the direction sought with a large enough effect in the repeat runs; inconclusive = weak or mixed curves; inactive = no such curve, though single readings can be large; an effect the other way counts as inactive or inconclusive. For max response in this document: % is scaled to controls: 0 for no effect and ±100 for the full control effect. For max response in this document: nearly all actives have a fitted effect of over 50% in size. Tags tell the direction and shape of the fitted curve or compound fluorescence and quenching.",
  "data": [
    {"smiles": "C1CCCC1", "values": [
      {"measurement": "Potency", "setting": "[1]", "result": "inactive"},
      {"measurement": "Potency", "setting": "[2]", "result": "inactive"},
      {"measurement": "Potency", "setting": "[3]", "result": "inactive"}
    ]},
    {"smiles": "CCCCCCCC[N+](CCCCCCCC)(CCCCCCCC)CCCCCCCC", "values": [
      {"measurement": "activation (H2AX phosphorylation)", "setting": "[1]", "result": "inconclusive: -5.1%"},
      {"measurement": "Potency", "setting": "[2]", "result": "inconclusive: 15.5 µM [falling, full curve]"},
      {"measurement": "Potency", "setting": "[4]", "result": "active: 6.15 µM"},
      {"measurement": "Potency", "setting": "[5]", "result": "active: 7.75 µM"},
      {"measurement": "Potency", "setting": "[6]", "result": "inconclusive: 13.8 µM [falling, full curve, poor fit]"}
    ]},
    {"smiles": "Cc1cc(C2CCCCC2)n(O)c(=O)c1", "values": [
      {"measurement": "Potency", "setting": "[1]", "result": "active: 9.82 µM"},
      {"measurement": "Potency", "setting": "[2]", "result": "inconclusive: 6.01 µM [falling, full curve]"},
      {"measurement": "Potency", "setting": "[7]", "result": "inconclusive: 26.8 µM [activator, single point]"},
      {"measurement": "Potency", "setting": "[5]", "result": "inconclusive: 7.56 µM [cytotoxic, partial curve]"},
      {"measurement": "Potency", "setting": "[8]", "result": "inconclusive: 26.8 µM [activator, single point]"},
      {"measurement": "Potency", "setting": "[3]", "result": "inactive"}
    ]},
    {"smiles": "CCN1/C(=C/C=C/c2sc3ccccc3[n+]2CC)Sc2ccccc21", "values": [
      {"measurement": "Potency", "setting": "[1]", "result": "inconclusive: 4.79 µM [fluorescent, full curve]"},
      {"measurement": "Potency", "setting": "[9]", "result": "active: 7.6 µM"},
      {"measurement": "Potency", "setting": "[10]", "result": "active: 0.231 µM"},
      {"measurement": "Potency", "setting": "[11]", "result": "inconclusive: 3.29 µM [falling, partial curve]"},
      {"measurement": "Potency", "setting": "[4]", "result": "active: 1.04 µM"},
      {"measurement": "Potency", "setting": "[12]", "result": "inconclusive: 4.14 µM [falling, partial curve]"},
      {"measurement": "Potency", "setting": "[5]", "result": "active: 1.04 µM"},
      {"measurement": "Potency", "setting": "[13]", "result": "active: 0.0585 µM"},
      {"measurement": "Potency", "setting": "[14]", "result": "inconclusive: 9.28 µM [activator, partial curve, poor fit]"},
      {"measurement": "Potency", "setting": "[15]", "result": "inconclusive: 4.65 µM [cytotoxic, partial curve]"}
    ]},
    {"smiles": "O=C1c2ccccc2C(=O)C1(O)O", "values": [
      {"measurement": "Potency", "setting": "[1]", "result": "active: 50.8 µM"},
      {"measurement": "Potency", "setting": "[9]", "result": "inconclusive: 32 µM [cytotoxic, partial curve]"},
      {"measurement": "Potency", "setting": "[10]", "result": "inconclusive: 48.8 µM [inhibitor, partial curve]"},
      {"measurement": "Potency", "setting": "[5]", "result": "inactive"},
      {"measurement": "Potency", "setting": "[8]", "result": "inconclusive: 55.3 µM [activator, single point]"}
    ]},
    {"smiles": "C=C(CC)C(=O)c1ccc(OCC(=O)O)c(Cl)c1Cl", "values": [
      {"measurement": "Potency", "setting": "[1]", "result": "inactive"},
      {"measurement": "Potency", "setting": "[9]", "result": "inconclusive: 112 µM [rising, single point] and inconclusive: 61.9 µM [rising, single point]"},
      {"measurement": "Potency", "setting": "[10]", "result": "inconclusive: 33.5 µM [inhibitor]"},
      {"measurement": "Potency", "setting": "[11]", "result": "inconclusive: 61.2 µM [falling, partial curve, poor fit]"},
      {"measurement": "Potency", "setting": "[12]", "result": "inconclusive: 54.6 µM [falling, single point]"},
      {"measurement": "Potency", "setting": "[15]", "result": "inconclusive: 61.2 µM [cytotoxic, single point]"},
      {"measurement": "Potency", "setting": "[8]", "result": "inconclusive: 54.6 µM [activator, single point]"}
    ]},
    {"smiles": "Nc1ccc(Oc2ccc(Cl)cc2)cc1", "values": [
      {"measurement": "Potency", "setting": "[1]", "result": "inconclusive: 31.2 µM [rising, partial curve, poor fit]"},
      {"measurement": "Potency", "setting": "[9]", "result": "inconclusive: 124 µM [cytotoxic]"},
      {"measurement": "Potency", "setting": "[10]", "result": "inconclusive: 30 µM [inhibitor, partial curve, poor fit]"},
      {"measurement": "Potency", "setting": "[5]", "result": "active: 21.4 µM"},
      {"measurement": "Potency", "setting": "[16]", "result": "inactive"}
    ]},
    {"smiles": "Oc1ccc(-c2ccc(O)cc2)cc1", "values": [
      {"measurement": "Potency", "setting": "[1]", "result": "inconclusive: 114 µM [falling, partial curve]"},
      {"measurement": "Potency", "setting": "[9]", "result": "inconclusive: 50.8 µM [rising, partial curve]"},
      {"measurement": "Potency", "setting": "[10]", "result": "inconclusive: 48.9 µM [inhibitor, partial curve]"},
      {"measurement": "Potency", "setting": "[4]", "result": "inconclusive: 34.9 µM [cytotoxic, partial curve]"},
      {"measurement": "Potency", "setting": "[12]", "result": "inactive"},
      {"measurement": "Potency", "setting": "[5]", "result": "inconclusive: 31.1 µM [cytotoxic, partial curve, poor fit]"},
      {"measurement": "Potency", "setting": "[13]", "result": "inconclusive: 39.1 µM [cytotoxic, partial curve]"},
      {"measurement": "Potency", "setting": "[14]", "result": "inactive"}
    ]},
    {"smiles": "NC(=O)c1ccccc1O", "values": [
      {"measurement": "Potency", "setting": "[1]", "result": "inactive"},
      {"measurement": "Potency", "setting": "[2]", "result": "inactive"},
      {"measurement": "max response", "setting": "[13]", "result": "inactive: 0.307% and inactive: -0.424% and inactive: 11.5%"}
    ]},
    {"smiles": "c1cc(OCC2CO2)cc(OCC2CO2)c1", "note": "(centres undefined)", "values": [
      {"measurement": "activation (H2AX phosphorylation)", "setting": "[1]", "result": "inconclusive: 16.9%"},
      {"measurement": "Potency", "setting": "[2]", "result": "inconclusive: 43.3 µM [falling, partial curve]"},
      {"measurement": "Potency", "setting": "[12]", "result": "inconclusive: 54.5 µM [falling, single point]"},
      {"measurement": "Potency", "setting": "[5]", "result": "inconclusive: 54.5 µM [cytotoxic, single point]"},
      {"measurement": "Potency", "setting": "[13]", "result": "active: 12.2 µM"},
      {"measurement": "Potency", "setting": "[15]", "result": "inconclusive: 48.6 µM [cytotoxic, partial curve]"}
    ]},
    {"smiles": "CN1C(=O)c2ccccc2C1=O", "values": [
      {"measurement": "Potency", "setting": "[1]", "result": "inconclusive: 5.05 µM [rising, partial curve, poor fit]"},
      {"measurement": "Potency", "setting": "[2]", "result": "inconclusive: 3.89 µM [falling, full curve, poor fit]"},
      {"measurement": "Potency", "setting": "[4]", "result": "inconclusive: 54.9 µM [rising, single point]"},
      {"measurement": "Potency", "setting": "[5]", "result": "inactive"},
      {"measurement": "Potency", "setting": "[13]", "result": "inconclusive: 49 µM [rising, single point]"},
      {"measurement": "Potency", "setting": "[16]", "result": "inactive"}
    ]}
  ]
}
